{"source": "PubChem BioAssay AID1030", "about": "(National Center for Advancing Translational Sciences (NCATS), 2008)", "note": "Values joined by “and” are separate entries in the source; they are usually repeats but may differ in a detail not shown here. Equal values may be shown once. In all, about 220,000 compounds went through this assay and about 16,000 (7.3%) were called active. The inconclusive results got no clear call from the source; some entries with a clear call stand among them for comparison. Calls come from the whole dose curve; as a rule, active = well fitted inhibition curve with a large enough effect (not every such curve was filed as active); inconclusive = small, poorly fitted or top-dose-only effect, or another doubt; inactive = no such curve, though single readings can be large or run the other way. A potency beside an inconclusive call is a rough fit, not a confirmed value. Some compounds were tested as several samples or in several runs, with calls that do not always agree. Potency is the fitted concentration of half-maximal effect; tags give direction and shape of the fitted curve.", "data": [{"molecular_target": "Aldehyde dehydrogenase 1A1 (Homo sapiens) (UniProt P00352)", "sequence (P00352 whole entry, looked up)": "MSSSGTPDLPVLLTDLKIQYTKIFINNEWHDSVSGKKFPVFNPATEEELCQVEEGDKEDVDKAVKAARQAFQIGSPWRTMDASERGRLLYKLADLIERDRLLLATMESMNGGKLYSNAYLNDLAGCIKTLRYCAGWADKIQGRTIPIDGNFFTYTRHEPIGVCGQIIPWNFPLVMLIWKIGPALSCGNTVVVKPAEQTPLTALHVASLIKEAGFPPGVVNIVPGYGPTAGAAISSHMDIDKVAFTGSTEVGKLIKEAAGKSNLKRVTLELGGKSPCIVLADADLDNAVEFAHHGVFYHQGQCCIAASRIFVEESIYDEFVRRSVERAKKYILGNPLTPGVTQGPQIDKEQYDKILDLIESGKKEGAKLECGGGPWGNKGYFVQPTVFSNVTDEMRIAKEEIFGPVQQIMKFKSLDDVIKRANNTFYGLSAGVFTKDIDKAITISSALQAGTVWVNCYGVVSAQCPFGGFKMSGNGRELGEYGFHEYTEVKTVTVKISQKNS", "test": "qHTS Assay for Inhibitors of Aldehyde Dehydrogenase 1 (ALDH1A1);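 for activity, negative = inhibition: plate controls were no enzyme wells and a reference inhibitor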", "conditions": "Purified ALDH1A1, NADH fluorescence, propionaldehyde substrate; series mostly up to 75.3 µM; activity, negative = inhibition: at the top concentration", "values": [{"smiles": "C[C@@H](Cc1ccc(Cl)cc1Cl)NO", "activity, negative = inhibition": "inactive: 11.4% [at 13.5 µM]"}, {"smiles": "COc1ccc(/C=C/C(=O)c2c(O)n(CCC3=CCCCC3)c(=O)[nH]c2=O)cc1", "Potency": "inconclusive: 39.8 µM [inhibitor, single point]"}, {"smiles": "O=C(O)/C=C/CO", "Potency": "inactive"}, {"smiles": "CCC(C)N1C(=O)/C(=C\\c2cc3c4c(c2)CCCN4CCC3)C(=O)NC1=S", "note": "(stereo not drawn)", "Potency": "active: 0.316 µM"}, {"smiles": "CN1CCN(C(=O)COc2ccc(C(C)(C)C)cc2Br)CC1", "Potency": "inconclusive: 39.8 µM [inhibitor, single point]"}, {"smiles": "Cc1cc2c(C(C)C)c(O)c(O)c(C=O)c2c(O)c1-c1c(C)cc2c(C(C)C)c(O)c(O)c(C=O)c2c1O", "Potency": "inactive"}, {"smiles": "O=C(c1ccc(N2CCCCC2)c([N+](=O)[O-])c1)N1CCC2(CC1)OCCO2", "Potency": "inconclusive: 39.8 µM [inhibitor, single point]"}, {"smiles": "CCC1(c2ccccc2)C(=O)N(C)C(=O)N(C)C1=O", "activity, negative = inhibition": "inactive: 2.27%"}, {"smiles": "CC(=O)[O][Hg][c]1ccccc1", "Potency": "active: 89.1 nM and active: 631 nM"}, {"smiles": "CC(C)(OO)c1ccccc1", "Potency": "inconclusive: 39.8 µM [inhibitor, single point]"}, {"smiles": "Cc1nc2c(-c3ccc(F)cc3)c(C)nn2c(C)c1CCC(=O)N1CCC2(CC1)OCCO2", "Potency": "inconclusive: 31.6 µM [inhibitor, single point]"}, {"smiles": "CN1CCc2nc(N)c(C#N)c(-c3ccccc3)c2C1", "Potency": "inconclusive: 39.8 µM [inhibitor, single point]"}, {"smiles": "O=C1NC(=O)N(c2cccc(Br)c2)C(=O)/C1=C/c1ccsc1", "Potency": "inconclusive: 39.8 µM [inhibitor, single point]"}, {"smiles": "CC(C)c1ccc2c(c1O)CCC1C3=C(CC[C@]21C)C(=O)OC3", "note": "(stereo partly drawn)", "activity, negative = inhibition": "inactive: -2.75%"}, {"smiles": "CCP(=S)(CC)c1ccc(N(C)C)cc1", "Potency": "inconclusive: 37.7 µM [inhibitor, single point]"}, {"smiles": "CCC(=NCCC(c1ccccc1)c1ccccc1)c1c(O)[nH]c(=O)[nH]c1=O", "Potency": "inconclusive: 22.4 µM [inhibitor, single point]"}, {"smiles": "CCSc1cc(C2C(C#N)=C(N)Oc3n[nH]c(C)c32)c(C)o1", "note": "(stereo not drawn)", "Potency": "inconclusive: 17.8 µM [inhibitor, single point]"}, {"smiles": "CCCCC/C=C\\C/C=C\\C/C=C\\C/C=C\\CCCC(=O)O", "Potency": "inactive and active: 2.82 µM and active: 7.94 µM"}, {"smiles": "COc1ccc(-n2cnc3cc(C(=O)N4CCC5(CC4)OCCO5)ccc32)cc1", "Potency": "inconclusive: 20 µM [inhibitor, partial curve]"}, {"smiles": "O=c1ccc2[nH]cc(C3=CCNCC3)c2[nH]1", "Potency": "inconclusive: 28.2 µM [inhibitor, partial curve]"}, {"smiles": "c1ccc(N2CC[C@@]3(CCCNC3)C2)cc1", "Potency": "inconclusive: 39.8 µM [inhibitor, single point]"}, {"smiles": "CC12C=CC(=O)C=C1CCC1C2=CCC2(C)C1CC[C@@H]2C(=O)CN1CCN(c2cc(N3CCCC3)nc(N3CCCC3)n2)CC1", "note": "(stereo partly drawn)", "Potency": "inconclusive: 39.8 µM [inhibitor, single point]"}, {"smiles": "COC1=CC(=O)O[C@@H](/C=C\\c2ccccc2)C1", "activity, negative = inhibition": "inactive: -7.48% [at 20.9 µM]"}, {"smiles": "O[C@H]1CCCC[C@H]1N1CCC(c2ccccc2)CC1", "Potency": "inactive"}, {"smiles": "C#C[C@@]1(O)CC[C@@H]2[C@@H]3CCC4=CC(=O)CC[C@@]4(C)[C@H]3CC[C@]21C", "activity, negative = inhibition": "inactive: -4.07% [at 20.9 µM]"}, {"smiles": "COc1ccc([N+](=O)[O-])cc1N=Cc1c(O)n(CCc2ccccc2)c(=O)n(C(C)C)c1=O", "activity, negative = inhibition": "inactive: -4.38%"}, {"smiles": "C[C@@H]1O[C@@H](O[C@H]2C[C@@H](O)[C@@]3(CO)[C@H]4[C@H](O)C[C@]5(C)[C@@H](C6=CC(=O)OC6)CC[C@]5(O)[C@H]4CC[C@@]3(O)C2)[C@@H](O)[C@H](O)[C@H]1O", "activity, negative = inhibition": "inactive: 14.4% [at 13.5 µM]"}, {"smiles": "CCN1CCN(C(=O)Cc2coc3cc(C)cc(C)c23)CC1", "activity, negative = inhibition": "inactive: 3.22%"}, {"smiles": "CC12CN3CC(C)(CN(C1)C3c1cccnc1)C2=O", "note": "(stereo not drawn)", "activity, negative = inhibition": "inactive: -1.6%"}, {"smiles": "C/C=C/C/C=C/CCC(=O)[C@H]1O[C@H]1C(N)=O", "Potency": "inconclusive: 39.8 µM [inhibitor, single point]"}, {"smiles": "CCOC(=O)CN(C#N)c1nc(N(C)C)nc(N(C)C)n1", "Potency": "active: 10 µM"}, {"smiles": "O=C(CN1C(=O)CN=C(c2ccccc2Cl)c2cc(Cl)ccc21)NCc1ccco1", "activity, negative = inhibition": "inactive: 6.61%"}, {"smiles": "COC(=O)C1=C(N)Oc2c(c(=O)oc3ccccc23)[C@]12C(=O)N(C)c1ccccc12", "Potency": "inconclusive: 2.51 µM [inhibitor, full curve]"}, {"smiles": "CCN(CCNc1ccc([N+](=O)[O-])c2cccnc12)S(=O)(=O)c1ccc(Cl)cc1", "Potency": "active: 2.82 µM"}, {"smiles": "O=C1N=c2ccccc2=C/C1=C\\c1c(O)[nH]c(=S)[nH]c1=O", "Potency": "active: 2.51 µM"}, {"smiles": "Nc1ccc(C2(c3ccc(N)cc3)CN3CCC2CC3)cc1", "activity, negative = inhibition": "inactive: 8.07%"}, {"smiles": "COC(=O)CC1=C(C(=O)OC)C2(C(=O)Nc3c(C)cccc32)C(C#N)=C(N)O1", "note": "(stereo not drawn)", "Potency": "active: 10 µM"}, {"smiles": "COc1cccc2c1cc([N+](=O)[O-])c1c(C(=O)O)cc3c(c12)OCO3", "Potency": "inconclusive: 44.7 µM [inhibitor, single point] and inconclusive: 39.8 µM [inhibitor, single point] and inconclusive: 20 µM [inhibitor, partial curve]"}, {"smiles": "COc1ccc(C(C)=O)cc1CC(C(=O)c1ccccc1)N(C)C", "note": "(stereo not drawn)", "activity, negative = inhibition": "inactive: 0.217%"}, {"smiles": "CCCCCCCCn1sccc1=O", "Potency": "inconclusive: 31.6 µM [inhibitor, single point]"}, {"smiles": "O=S1(=O)CC2(N3CCOCC3)CCCCC21", "note": "(stereo not drawn)", "activity, negative = inhibition": "inactive: 17.5%"}, {"smiles": "CCCCCCCCCCCC[N+](C)(C)CCOc1ccccc1", "Potency": "active: 14.1 µM"}, {"smiles": "Cc1cccc(N2CCN(CCc3ccccc3)CC2)c1C", "Potency": "inconclusive: 39.8 µM [inhibitor, single point]"}, {"smiles": "CCN1CCN(Cc2cc(C(C)(C)C)c(O)c(C(C)(C)C)c2)CC1", "Potency": "active: 28.2 µM"}, {"smiles": "Cc1ccc(-n2c(O)c(C=Nc3ccc(S(=O)(=O)N(C)C)cc3)c(=O)[nH]c2=O)cc1", "activity, negative = inhibition": "inactive: -6.87%"}, {"smiles": "CCCn1c(C(=O)c2ccc(OC)cc2)nc2ccccc21", "activity, negative = inhibition": "inactive: -11.1%"}, {"smiles": "Clc1ccc(C(c2ccccc2Cl)C(Cl)(Cl)Cl)cc1", "note": "(stereo not drawn)", "Potency": "active: 22.4 µM"}, {"smiles": "CCCCNC(=O)OC(C)CNC(=O)Oc1cccc(C)c1", "note": "(stereo not drawn)", "Potency": "inconclusive: 35.5 µM [inhibitor, single point]"}]}]}
